Test results: US6451544B2, “Identification of agents that protect against inflammatory injury to neurons” (Baylor College of Medicine, priority 1996, dated 2002)
“Also recorded” adds a separate entry of the source. Not every detail of the peptide structures is certain; ends, links or a residue may be inferred. Some compounds share one wording; it may come from a single statement. Peptide text beside a SMILES is read from it.

Columns and labels:
[1] = test system: neuron cultures containing microglia; test: Peptide blockade of Aβ1-42 induction of neurotoxic microglia; assay type: cell-based, rat; conditions: peptides at 10 μmoles/liter with human Aβ1-42 1 μmole/liter
microglia = test: SpheresAβ1-42 binding to microglia; parameters: species or system rat; conditions: peptides 10 μmoles/l; 4 hours at 37° C.
Experimental: Isolated microglia (1000 per mm^2 ) were placed atop 16 mm glass coverslips in 24-well culture plates. Each well then received 250,000 SpheresAβ1-42 or Spheresmal-BSA in the presence or absence of Aβ peptides, GAGs, or scavenger receptor ligands. Binding assays were carried out at 37° C. for 4 hours after which coverslips were dipped 10 times in phosphate buffer and fixed with 4% buffered paraformaldehyde. Microsphere adherence to cells was scored at 200 magnification with phase/fluorescence microscopy. Data, expressed as % inhibition of sphere binding, was calculated from total number of spheres per field noted for control cultures receiving spheres only. Values are based upon at least 3 coverslips from 2 independent experiments. Fluoresbrite carboxylate YG microspheres (1.0 micron diameters; 0.5 ml of a 2.5% suspension) were activated with 1% carbodiimide for 4 hr at room temperature. Washed spheres were resuspended in 0.2 M borate buffer (pH 8.5) in the presence of 300 μg Aβ or 400 μg BSA in 6% DMSO. After overnight mixing at room temperature, the spheres were washed extensively and blocked by 1 M glycine (pH 8.0) for 30 minutes. Maleylation of coupled BSA was carried out at room temperature by adding 1 M maleic anhdyride in acetonitrile at pH 9.0.

rat microglia [2] = test: Binding of Aβ peptide-coupled fluorescent microspheres to microglia; conditions: 1 micron microspheres; 4 hour incubation at 37 C; microglia 500/mm^2
neocortex of adult rat = test: Infusion of Aβ1-42 into neocortex, inflammatory response; assay type: in vivo; conditions: 1.0 nmole co-infused with 0.5 nmoles Aβ1-42
[3] = test system: rat hippocampal cultures supplemented with microglia; test: Neurotoxicity assay: hippocampal neuron cultures supplemented with microglia (induction of neurotoxic microglia); assay type: cell-based; conditions: for induction of neurotoxic microglia / neuron killing in presence of microglia: peptide in solution, typically 1 μmole/l, 72 hours, microglia 500 per mm^2
[4] = test system: Microglia mixed with hippocampal neurons; test: Blockade of plaque activation of neurotoxic microglia; assay type: cell-based, rat; conditions: in vitro, AD plaques as inducer
rat microglia [5] = test: Microglial adherence to Sepharose-coupled beads; assay type: binding; conditions: 6 hour incubation at 37° C.
human microglia = test: Neuron killing by human microglia; assay type: cell-based; conditions: 1 μmole/liter
rat microglia [6] = test: Microglial morphology / reactivity; assay type: cell-based; conditions: peptides 1 μmole/l; plaque fractions
macrophages = test: SpheresAβ1-42 binding to macrophages, competition; conditions: increasing amounts; 4 hours at 37° C.
kidney cells = test: SpheresAβ1-42 binding to kidney cells, competition; conditions: increasing amounts; 4 hours at 37° C.

| Structure (SMILES) | blocking of neurotoxin production induced by Aβ1-42 [1] | inhibition of SpheresAβ1-42 binding to microglia by peptides (microglia) | microglial binding of microspheres coupled to the peptide (rat microglia [2]) | induction of neurotoxic microglia / neuron killing in presence of microglia [3] | neuron killing induced by human or rat microglia exposed to peptide (human microglia) | also measured |
| --- | --- | --- | --- | --- | --- | --- |
| C[C@H](NC(=O)[C@@H](N)CC(=O)O)C(=O)N[C@@H](CCC(=O)O)C(=O)N[C@@H](Cc1ccccc1)C(=O)N[C@@H](CCCNC(=N)N)C(=O)O [Aβ1-5] (H-DAEFR-OH; N-terminus and C-terminus assumed) | did not | did not | did not |  |  | effect of co-infusion on Aβ1-42 induced brain inflammation (neocortex of adult rat): did not alter inflammation |
| CC[C@H](C)[C@H](NC(=O)[C@H](C)NC(=O)CNC(=O)[C@H](CCCCN)NC(=O)[C@H](CC(N)=O)NC(=O)[C@H](CO)NC(=O)CNC(=O)[C@@H](NC(=O)[C@H](CC(=O)O)NC(=O)[C@H](CCC(=O)O)NC(=O)[C@H](C)NC(=O)[C@H](Cc1ccccc1)NC(=O)[C@H](Cc1ccccc1)NC(=O)[C@@H](NC(=O)[C@@H](N)CC(C)C)C(C)C)C(C)C)C(=O)N[C@H](C(=O)NCC(=O)N[C@@H](CC(C)C)C(=O)N[C@@H](CCSC)C(=O)N[C@H](C(=O)NCC(=O)NCC(=O)N[C@H](C(=O)N[C@H](C(=O)N[C@H](C(=O)N[C@@H](C)C(=O)O)[C@@H](C)CC)C(C)C)C(C)C)C(C)C)[C@@H](C)CC [Aβ17-42] (H-LVFFAEDVGSNKGAIIGLMVGGVVIA-OH; N-terminus and C-terminus assumed) |  |  | neither binds to microglia nor elicits toxicity | neither binds to microglia nor elicits toxicity; also recorded: unable to induce toxicity |  |  |
| CC[C@H](C)[C@H](NC(=O)[C@@H](NC(=O)[C@@H](NC(=O)CNC(=O)CNC(=O)[C@@H](N)C(C)C)C(C)C)C(C)C)C(=O)N[C@@H](C)C(=O)O [Aβ36-42] (H-VGGVVIA-OH; N-terminus and C-terminus assumed) | did not | did not | little cell binding |  |  |  |
| CC(C)C[C@H](NC(=O)[C@H](CCCCN)NC(=O)[C@H](CCC(N)=O)NC(=O)[C@H](Cc1c[nH]cn1)NC(=O)[C@@H](N)Cc1c[nH]cn1)C(=O)N[C@H](C(=O)N[C@@H](Cc1ccccc1)C(=O)N[C@@H](Cc1ccccc1)C(=O)O)C(C)C [Aβ13-20] (H-HHQKLVFF-OH; N-terminus and C-terminus assumed) |  |  |  |  |  | blocking of plaque-induced toxicity [4]: blocked plaque-induced toxicity |
| CC[C@H](C)[C@H](NC(=O)[C@H](C)NC(=O)CNC(=O)[C@H](CCCCN)NC(=O)[C@H](CC(N)=O)NC(=O)[C@H](CO)NC(=O)CNC(=O)[C@@H](NC(=O)[C@H](CC(=O)O)NC(=O)[C@H](CCC(=O)O)NC(=O)[C@H](C)NC(=O)[C@H](Cc1ccccc1)NC(=O)[C@H](Cc1ccccc1)NC(=O)[C@@H](NC(=O)[C@@H](N)CC(C)C)C(C)C)C(C)C)C(=O)N[C@H](C(=O)NCC(=O)N[C@@H](CC(C)C)C(=O)N[C@@H](CCSC)C(=O)N[C@H](C(=O)NCC(=O)NCC(=O)N[C@H](C(=O)N[C@H](C(=O)N[C@H](C(=O)N[C@@H](C)C(=O)N[C@H](C(=O)O)[C@@H](C)O)[C@@H](C)CC)C(C)C)C(C)C)C(C)C)[C@@H](C)CC [Aβ17-43] (H-LVFFAEDVGSNKGAIIGLMVGGVVIAT-OH; N-terminus and C-terminus assumed) | did not | did not | little cell binding; also recorded: did not | neither Aβ17-43 nor Aβ1-40rodent induced neurotoxic cells; also recorded: did not injure neurons | inactive | hippocampal neurons after conditioned media from peptide-incubated microglia ([3]; conditioned media 10% vol/vol, microglia incubated with 1 μmole/l peptide): undamaged; microglial adherence to Sepharose beads coupled to the substance (rat microglia [5]): did not; microglial morphology / percent reactive microglia (rat microglia [6]): does not alter microglial morphology |
| CC(C)C[C@H](NC(=O)[C@H](CCCCN)NC(=O)[C@H](CCC(N)=O)NC(=O)[C@H](Cc1c[nH]cn1)NC(=O)[C@H](Cc1c[nH]cn1)NC(=O)[C@@H](N)C(C)C)C(=O)N[C@H](C(=O)N[C@@H](Cc1ccccc1)C(=O)N[C@@H](Cc1ccccc1)C(=O)N[C@@H](C)C(=O)N[C@@H](CCC(=O)O)C(=O)N[C@@H](CC(=O)O)C(=O)N[C@H](C(=O)NCC(=O)N[C@@H](CO)C(=O)N[C@@H](CC(N)=O)C(=O)N[C@@H](CCCCN)C(=O)O)C(C)C)C(C)C [Aβ12-28] |  |  | marked glial binding; also recorded: readily bind |  | inactive |  |
| CC(C)C[C@H](NC(=O)[C@H](CCCCN)NC(=O)[C@H](CCC(N)=O)NC(=O)[C@H](Cc1c[nH]cn1)NC(=O)[C@H](Cc1c[nH]cn1)NC(=O)[C@@H](NC(=O)[C@H](CCC(=O)O)NC(=O)[C@@H](N)Cc1ccc(O)cc1)C(C)C)C(=O)N[C@H](C(=O)N[C@@H](Cc1ccccc1)C(=O)N[C@@H](Cc1ccccc1)C(=O)O)C(C)C [Aβ10-20] (H-YEVHHQKLVFF-OH; N-terminus and C-terminus assumed) | blocked neurotoxin production | effectively prevented microglial binding to SpheresAβ1-42 |  |  |  |  |
| CC(C)[C@H](NC(=O)[C@H](CCC(=O)O)NC(=O)[C@@H](N)Cc1ccc(O)cc1)C(=O)N[C@@H](Cc1c[nH]cn1)C(=O)N[C@@H](Cc1c[nH]cn1)C(=O)N[C@@H](CCC(N)=O)C(=O)N[C@@H](CCCCN)C(=O)O [Aβ10-16] (H-YEVHHQK-OH; N-terminus and C-terminus assumed) | blocked neurotoxin production | effectively prevented microglial binding to SpheresAβ1-42 | readily bind; also recorded: able to bind to microglia | did not elicit neurotoxic microglia |  | induction of neurotoxic microglia / neuron killing in presence of microglia ([3]; listed as AP10-16): did not injure neurons; blocking of plaque-induced toxicity [4]: blocked plaque-induced toxicity; competition of SpheresAβ1-42 binding to macrophages (macrophages): competition occurs with the macrophages in a dose dependent manner; competition of SpheresAβ1-42 binding to kidney cells (kidney cells): no changes in binding |
| CC[C@H](C)[C@H](NC(=O)[C@H](C)NC(=O)CNC(=O)[C@H](CCCCN)NC(=O)[C@H](CC(N)=O)NC(=O)[C@H](CO)NC(=O)CNC(=O)[C@@H](NC(=O)[C@H](CC(=O)O)NC(=O)[C@H](CCC(=O)O)NC(=O)[C@H](C)NC(=O)[C@H](Cc1ccccc1)NC(=O)[C@H](Cc1ccccc1)NC(=O)[C@@H](NC(=O)[C@H](CC(C)C)NC(=O)[C@H](CCCCN)NC(=O)[C@H](CCC(N)=O)NC(=O)[C@H](Cc1c[nH]cn1)NC(=O)[C@H](CCCNC(=N)N)NC(=O)[C@@H](NC(=O)[C@H](CCC(=O)O)NC(=O)[C@H](Cc1ccccc1)NC(=O)CNC(=O)[C@H](CO)NC(=O)[C@H](CC(=O)O)NC(=O)[C@H](Cc1c[nH]cn1)NC(=O)CNC(=O)[C@H](Cc1ccccc1)NC(=O)[C@H](CCC(=O)O)NC(=O)[C@H](C)NC(=O)[C@@H](N)CC(=O)O)C(C)C)C(C)C)C(C)C)C(=O)N[C@H](C(=O)NCC(=O)N[C@@H](CC(C)C)C(=O)N[C@@H](CCSC)C(=O)N[C@H](C(=O)NCC(=O)NCC(=O)N[C@H](C(=O)N[C@H](C(=O)O)C(C)C)C(C)C)C(C)C)[C@@H](C)CC [rodent Aβ1-40] (H-DAEFGHDSGFEVRHQKLVFFAEDVGSNKGAIIGLMVGGVV-OH; N-terminus and C-terminus assumed) |  | unable to block microglial adherence | little cell binding | did not activate microglia | inactive | induction of neurotoxic microglia / neuron killing in presence of microglia ([3]; listed as Aβ1-40rodent): neither Aβ17-43 nor Aβ1-40rodent induced neurotoxic cells; induction of neurotoxic microglia / neuron killing in presence of microglia ([3]; listed as Rodent Aβ1-40): did not activate microglia |
